Results published in PubChem BioAssay AID1460 (National Center for Advancing Translational Sciences (NCATS), 2008).
Out of some 270,000 compounds screened, about 5,800 (2.1%) were called active. Inconclusive results, whose numbers are uncertain, are shown with a selection of clear calls. Calls come from the whole dose curve; as a rule, active = well fitted inhibition curve with a large enough effect; inconclusive = small, poorly fitted or top-dose-only effect; inactive = flat fitted curve, though single readings scatter. Where the call is inconclusive, the potency comes from a doubtful curve fit.

target: Microtubule-associated protein tau (Homo sapiens) (UniProt P10636); experiment: qHTS for Inhibitors of Tau Fibril Formation, Thioflavin T Binding; conditions: recombinant tau K18 P301L, heparin-induced fibrillization, ThT fluorescence; series mostly up to 57.4 µM; activity, negative = inhibition: at the top concentration; note: nearly all actives have a fitted effect of over 55% in size
Summary of the method: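 Using a mix of unlabeled (15 uM) and Alexa 594-labeled (0.24 uM) tau K18 P301L, heparin-triggered fibrillization over 6 hr at 37 C was scored by ThT fluorescence.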
% is set by controls: 0 for no effect and ±100 for the full control effect; potency is the fitted concentration of half-maximal effect; tags give direction and shape of the fitted curve.

Sequence of UniProt P10636 (P10636 whole entry, looked up): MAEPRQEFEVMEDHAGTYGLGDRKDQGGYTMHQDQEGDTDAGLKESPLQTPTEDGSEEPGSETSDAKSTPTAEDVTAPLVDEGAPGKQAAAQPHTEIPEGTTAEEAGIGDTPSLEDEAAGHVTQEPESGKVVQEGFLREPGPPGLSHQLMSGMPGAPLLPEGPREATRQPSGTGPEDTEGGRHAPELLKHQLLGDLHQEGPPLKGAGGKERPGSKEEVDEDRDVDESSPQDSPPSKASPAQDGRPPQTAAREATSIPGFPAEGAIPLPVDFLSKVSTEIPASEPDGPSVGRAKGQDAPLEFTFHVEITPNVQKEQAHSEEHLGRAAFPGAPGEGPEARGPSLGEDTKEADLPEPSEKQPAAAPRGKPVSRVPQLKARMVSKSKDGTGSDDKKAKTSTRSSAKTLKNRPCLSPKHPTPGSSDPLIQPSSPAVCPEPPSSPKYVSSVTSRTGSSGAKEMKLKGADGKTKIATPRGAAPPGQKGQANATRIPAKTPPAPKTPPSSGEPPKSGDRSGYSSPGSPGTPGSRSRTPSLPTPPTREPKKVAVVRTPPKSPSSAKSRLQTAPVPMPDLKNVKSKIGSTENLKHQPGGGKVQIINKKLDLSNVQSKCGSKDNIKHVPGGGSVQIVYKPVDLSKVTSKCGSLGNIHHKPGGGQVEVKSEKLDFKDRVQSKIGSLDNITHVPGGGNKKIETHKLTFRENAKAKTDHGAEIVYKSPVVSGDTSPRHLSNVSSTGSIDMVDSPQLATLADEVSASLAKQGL

Compound | Potency | activity, negative = inhibition
Nc1nc(-c2ccc3c(c2)NC(=O)CO3)cs1 | inconclusive: 14.1 µM [inhibitor, partial curve] | 
CN(C)S(=O)(=O)c1ccc(Cl)c(NC(=O)COC(=O)/C=C/c2cnc3ccccc3n2)c1 | inconclusive: 11.2 µM [inhibitor, partial curve] | 
Cc1occc1C(=O)NCCc1ccc(Cl)cc1 |  | inactive: -15.2%
CSc1nnc(-c2sc3cc(Cl)ccc3c2Cl)n1C | inconclusive: 31.6 µM [inhibitor, partial curve, poor fit] | 
O=[N+]([O-])c1ccccc1/C=N/n1c(C2CCCCC2)n[nH]c1=S |  | inactive: 1.42%
CC(SCc1ccccc1)C(=O)Nc1ccc2c(c1)OCO2 (centres undefined) | inconclusive: 31.6 µM [inhibitor, single point] | 
CC(C)(C)c1ccc(OCC(=O)N/N=C/C2CC=CCC2)cc1 (centres undefined) |  | inactive: -12.6%
CCOc1cccc(C(=O)N(Cc2ccc(N(C)C)cc2)CC2CCCO2)c1 (centres undefined) |  | inactive: -9.16%
Cn1c(=O)n(C)c2cc(N3CCOCC3)c(NS(=O)(=O)c3ccc(C(C)(C)C)cc3)cc21 |  | inactive: -12.2%
Nc1n[nH]c(C2CC2)c1N=Nc1ccc(Cl)c(Cl)c1 | active: 12.6 µM | 
CN(Cc1cnccn1)Cc1c(C(=O)N2CCc3ccccc3C2)nc2ccc(Cl)cn12 |  | inactive: 3.38%
COc1ccc(-c2cc(C#N)nc(NN)n2)cc1 | inconclusive: 7.08 µM [inhibitor, partial curve] | 
CC(=O)c1c(N2CCN(C)CC2)nc(=S)n(-c2cc(C)ccc2C)c1C |  | inactive: 1.62%
Oc1ccc(/C=N/Nc2cc(N3CCCC3)nc(N3CCCC3)n2)cc1 | inconclusive: 20 µM [inhibitor, partial curve, poor fit] | 
COc1cccc(N2CCN(C(=O)C3CCN(S(=O)(=O)c4cccc5nonc45)CC3)CC2)c1 |  | inactive: 2.51%
Cc1cccc(CN2CCCC(C(=O)c3ccc4c5c(cccc35)CC4)C2)n1 (centres undefined) |  | inactive: -4.83%
CC(C)(CC(=O)O)CC(=O)Nc1ccc(Cl)c(Cl)c1 |  | inactive: -2.76%
O=C(c1ccc(S(=O)(=O)Cc2ccccc2Cl)c([N+](=O)[O-])c1)N1CCN(c2ccccn2)CC1 | inconclusive: 20 µM [inhibitor, partial curve] | 
O=C(N/N=C/c1ccc2c(c1)OCO2)C1COc2ccccc2O1 (centres undefined) | inconclusive: 20 µM [inhibitor, partial curve] | 
O=C(Nc1ccccc1-c1nc2ccccc2s1)c1cccnc1Cl |  | inactive: -6.1%
O=[N+]([O-])c1cc(Br)cc(C=Nc2ccc3c(c2)OCO3)c1O | inconclusive: 20 µM [inhibitor, partial curve, poor fit] | 
COc1cc(SC)ccc1C(=O)NCCOc1c(C)cc(C)cc1C | active: 15.8 µM | 
COc1ccc(-c2nc(CCNC(=O)c3cccs3)cs2)cc1 | inconclusive: 12.6 µM [inhibitor, partial curve, poor fit] | 
CS(=O)(=O)N(CC(=O)Nc1ccc(Br)cc1)c1ccccc1Br |  | inactive: 4.37%
Cc1cccc(C)c1N=C1NN=C(c2ccccc2F)CS1 | inconclusive: 22.4 µM [inhibitor, single point] | 

Compound | Potency | activity, negative = inhibition
CCCOc1ccc(-c2nn(-c3ccccc3)cc2C2NC(=O)NC(C)=C2C(=O)OC)cc1 (centres undefined) | inconclusive: 20 µM [inhibitor, partial curve] | 
Cc1cccc(NS(=O)(=O)c2ccc3c(c2)[C@H]2C=CC[C@H]2[C@@H](c2ccc(F)cc2)N3)c1 | inconclusive: 15.8 µM [inhibitor, partial curve] | 
S=c1[nH]nc(-c2ccco2)n1Cc1ccccc1 |  | inactive: -3.06%
C=CCn1c(=O)c2ccccc2n2c(SCc3nc4ccccc4s3)nnc12 |  | inactive: -22.8%
CC(=O)c1sc(C(=O)O)c(-c2ccco2)c1-c1ccco1 |  | inactive: -9.32%
Clc1ccc(-c2cnn3c(-c4ccncc4)ccnc23)cc1 | active: 2.51 µM | 
Nc1c(Cl)ncnc1N/N=C/c1ccc(O)cc1 | inconclusive: 12.6 µM [inhibitor, partial curve] | 
COCCN(CCOC)S(=O)(=O)c1ccc(C(=O)Nc2ccc([N+](=O)[O-])cc2OC)cc1 | inconclusive: 17.8 µM [inhibitor, single point] | 
COc1ccc(OC)c(Cc2nnc(CCC(=O)NCc3ccc(C)s3)o2)c1 | inconclusive: 3.16 µM [inhibitor, partial curve] | 
Cc1ccc(C)c(N2CCN(C(=O)c3cc4c(=O)n(Cc5ccco5)ccc4nc3C)CC2)c1 |  | inactive: -7.05%
COc1cccc(C(=O)Nc2cccc(NC(=O)c3ccc(Cl)cc3Cl)c2)c1 |  | inactive: -8.83%
COC(=O)c1ccccc1NC(=O)c1ccc(COc2ccc(C)c(C)c2)o1 | inconclusive: 25.1 µM [inhibitor, partial curve] | 
O=c1[nH]c2cc3c(cc2cc1CN(Cc1ccccc1)Cc1nnnn1Cc1ccco1)OCCO3 | inconclusive: 20 µM [inhibitor, partial curve] | 
Cc1ccc2c(c1)S/C(=C/c1ccc[n+](C)c1)N2CCO | inconclusive: 35.5 µM [inhibitor, single point] | 
Cc1cc(NCCCn2ccnc2)n2ncc(-c3ccc(Cl)cc3)c2n1 | inconclusive: 25.1 µM [inhibitor, partial curve] | 
COc1ccc(N2CCN(C(=O)C3Cc4ccccc4CN3C(=O)c3ccccc3)CC2)cc1 (centres undefined) | inconclusive: 22.4 µM [inhibitor, partial curve] | 
COc1ccc(S(=O)(=O)Nc2ccc3oc4c(c3c2)C(=O)CC(C)(C)C4)cc1 |  | inactive: -2.01%
CCc1ccc(OCCNC(=O)c2ccccc2SCc2ccc(F)cc2)cc1 | inconclusive: 39.8 µM [inhibitor, single point] | 
CN(C)c1ccc(NC(=O)Nc2cccc3ccccc23)cc1 | inconclusive: 3.55 µM [inhibitor, full curve] | 
NC(=S)n1[nH]c(-c2ccccc2)c(N=Nc2ccccc2C(=O)N2CCOCC2)c1=O | inconclusive: 8.91 µM [inhibitor, single point] | 
Cc1ccc(Cl)cc1N1CCN(C(=O)C2CCN(S(=O)(=O)c3cccnc3)CC2)CC1 |  | inactive: -14.7%
CCCCOc1ccc(Cn2c(=O)oc3ccc(C)cc32)cc1 |  | inactive: 5.2%
CCCCNC(=O)c1cc2cc(OC)ccc2[nH]1 | inconclusive: 39.8 µM [inhibitor, single point] | 
O=C(N/N=C/c1ccccn1)c1ccc(Br)cc1 | inconclusive: 7.94 µM [inhibitor, partial curve] | 
Nc1ccc(/C=C/C(=O)c2ccco2)cc1 | inconclusive: 17.8 µM [inhibitor, partial curve] | 

Compound | Potency | activity, negative = inhibition
CCOc1cc(/C=C2/NC(=O)NC2=O)cc(Br)c1OCc1ccc(C(=O)O)cc1 |  | inactive: -17.8%
CCOC(=O)c1ccc(NC(=O)CSc2nc3ccccc3c(=O)n2CCNC(C)=O)cc1 |  | inactive: 10.4%
CCOCCCNC(=O)c1cc2c(-c3ccc(Cl)cc3)nn(C)c2s1 | inconclusive: 22.4 µM [inhibitor, single point] | 
Cc1cc(C(=O)OCC(=O)N2CC(C)CC(C)C2)c(C)o1 (centres undefined) |  | inactive: -12.7%
O=C(NCc1ccccn1)c1coc(=O)c(Br)c1 |  | inactive: -10.4%
O=C(Nc1ccc(N2CCN(c3ccc(F)cc3)CC2)c(C(=O)O)c1)c1ccccc1F |  | inactive: -11.1%
O=C(C1=C[C@@H](c2ccc(Br)cc2)C[C@@H](OCc2ccc(CO)cc2)O1)N1CCN(Cc2ccccc2)CC1 | inconclusive: 1 µM [inhibitor, single point] | 
Cc1cccc(NC(=O)c2cc(-c3ccc4c(c3)OCCO4)on2)c1 | inconclusive: 0.562 µM [inhibitor, full curve] | 
CC1(O)C(=O)C=C2C=C(CCCCOCc3ccccc3)OC=C2C1=O (centres undefined) | inconclusive: 1.58 µM [inhibitor, partial curve] | 
CCSc1ncc(Cl)c(C(=O)N(Cc2ccc(N(C)C)cc2)Cc2ccco2)n1 | inconclusive: 12.6 µM [inhibitor, partial curve] | 
CC(=O)N1CCC2(CC1)NC(=O)N(c1ccccc1)N2 |  | inactive: -3.12%
COC(=O)c1cc(OC)c(OC)cc1NCC(=O)Nc1ccc(OC)c(OC)c1 |  | inactive: -12.2%
Cc1ccc2c(c1)C=CC(C#N)N2C(=O)c1ccccc1 (centres undefined) |  | inactive: 0.784%
Cc1ccc2c(=O)oc(N(C)C)nc2c1 | inconclusive: 25.1 µM [inhibitor, single point] | 
C/C(=N\NC(=O)COc1ccccc1)c1cccs1 | inconclusive: 39.8 µM [inhibitor, single point] | 
CCOC(=O)Cc1csc(SCC(=O)c2c(N)n(CC(C)C)c(=O)n(C)c2=O)n1 | inconclusive: 3.55 µM [activator, single point] | 
COc1ccc(-c2cn3ccccc3n2)cc1[N+](=O)[O-] | inconclusive: 12.6 µM [inhibitor, partial curve] | 
CCN1CCc2nc3sc(C(=O)c4ccccc4)c(N)c3cc2C1 | active: 8.91 µM | 
CCN(c1ccccc1)S(=O)(=O)c1nnc(NC(=O)C(C)(C)C)s1 | inconclusive: 0.562 µM [inhibitor, full curve] | 
Cc1cc(N)c2cc(NC(=O)/C=C/c3ccccc3Cl)ccc2n1 | inconclusive: 3.55 µM [activator, full curve] | 
Cc1ccc2c(c1)nnn2C1CCN(C(=O)C23CC4CC(CC(C4)C2)C3)CC1 |  | inactive: -17.7%
Cc1ccc(CSc2nnc(-c3ccccc3N)c(=O)[nH]2)cc1 | inconclusive: 20 µM [inhibitor, partial curve] | 
Cc1occc1-c1nnc(SCC(=O)c2ccc(F)cc2)n1Cc1ccco1 | inconclusive: 35.5 µM [inhibitor, single point] | 
CSc1ncc(C(=O)Nc2cccc(C)c2C)c(-c2ccccc2)n1 | inconclusive: 44.7 µM [inhibitor, single point] | 
